In patent US9777070B2, “Anti-PTK7 antibody-drug conjugates” (Pfizer Inc., priority 2014, dated 2017):

Key:
BR13 TNBC breast tumors = test: Tumor-initiating cell (TIC) frequency by limit dilution analysis after in vivo treatment; design: species or system human tumor in mice; conditions: 4 mpk
Description: To determine whether anti-PTK7 antibody-drug conjugate treatments reduced tumor-initiating cell (TIC) frequency in tumors, BR13 TNBC breast tumors were treated with 4 mg/kg hu24-vc0101 ADC, 4 mg/kg control IgG ADC, or 20 mg/kg docetaxel chemotherapy twice weekly for a total of 3 doses (Days 0, 3 & 7). Live, residual human tumor cells (i.e. hESA^+ mCD45^− mH-2Kd^−) were isolated from dissociated tumors at day 10 and re-implanted into naïve animals in a limit dilution analysis (LDA). Resulting tumor incidence was monitored for up to 40 weeks post-transplant. The day of tumor harvest (day 10) and serial transplantation was chosen based on when tumors were starting to regress following hu24-vc0101 exposure. Tumors were dissociated and stained with anti-human ESA, anti-mouse CD45, and anti-mouse H-2Kd antibodies. Three tumors per treatment group were pooled, and live human tumor cells were sorted by flow cytometry. Groups of 10 mice were injected with either 293, 73, 37 or 15 tumor cells sorted from control IgG ADC treated tumors; 159, 90, 40 or 10 tumor cells sorted from hu24-vc0101 treated tumors; or 257, 33 or 15 tumor cells sorted from docetaxel-treated tumors. Tumors in recipient mice were measured weekly and tumors that exceeded 200 mm^3 in recipient mice were scored as positive. Using Poisson distribution statistics, via L-Calc software (Stemcell Technologies, Vancouver, BC), injected cell doses of recipients with and without tumors by 40 weeks post-transplant were used to calculate the frequency of TIC after each treatment.

[1] = system: Breast-22 (BR22) TNBC PDX; test: In vivo efficacy, PDX tumor growth; design: species or system human tumor in NOD/SCID mice
Source text: The effects of anti-PTK7 antibody-drug conjugates were further evaluated on the in vivo growth of human tumor patient-derived xenografts (PDX). Primary tumor resection samples were procured from clinical sites following Institutional Review Board for the Protection of Human Subjects approval and in accordance with HIPAA regulations. Tumor fragments were stored and shipped in Hypothermasol (Biolife Solutions) on ice and were embedded in Matrigel (BD) containing a proprietary mix of growth factors and implanted subcutaneously into the mammary fatpad of female NOD/SCID mice within 24 hours of resection. Mice were monitored for health status daily and for tumor growth initially by visual inspection twice per week. Once the tumors were palpable, measurements of tumor volume began to track tumor growth and estimate cell doubling time. Tumor volume was estimated using the equation V=(A*B^2)/2 where A is the long axis and B is the short axis. When tumors reached a volume of 500 mm^3 to 1,500 mm^3, they were harvested for study and for re-transplant as a patient-derived xenograft (PDX). Depending on the line, mechanical and/or chemical dissociation can be used to separate the individual cells for passage. Live cells were inoculated into naïve animals with 10,000 to 50,000 cells per animals
For efficacy studies, tumors were harvested from passaging studies and cells were dissociated into single cell suspension. Preparations were counted for live cells using Trypan blue exclusion and 10,000 to 50,000 cells were inoculated per mouse in Matrigel. […] Tumor growth was initially followed by palpability with measurements beginning once tumor volumes reached about 30 mm^3. Studies were randomized based on tumor size once a cohort of tumor-bearing mice reached 140 mm^3 to 180 mm^3. Animals were dosed by intraperitoneal injection twice a week for two weeks (q4dx4). Study groups were followed until individual mice or entire group tumor measurements reached 1200 mm^3 when sacrifice was indicated in accordance with IACUC protocol. For selected dosing studies, pharmacokinetic submandibular bleeds were performed at 2 hours, 36 hours and 72 hours. A volume of 10 μL of blood was immediately pipetted into 90 μL of HBS-P (GE Healthcare). Samples were stored at −80° C. prior to analysis. For each tumor measurement the tumor volume±standard error of the mean (SEM) is provided. GT=Group Terminated due to large tumor size.
Animals were dosed every four days for four cycles (Q4Dx4) by intraperitoneal injection except the BR5 study which was by intravenous injection on the same schedule. Tumor measurements were recorded one or two times per week using digital calipers and tumor volume was estimated using the equation V=(A×B^2)/2 where A is the long axis and B is the short axis. Animal body weights were measured and recorded at least once a week. Study groups were followed until individual mice or entire group tumor measurements reached 1200 mm^3 at which point sacrifice was indicated in accordance with IACUC protocol. For the BR5 study, animals were sacrificed once tumor volume approached 15% of the body weight at staging in accordance with IACUC protocol.
Tumor growth inhibition (TGI) was calculated using the equation % TGI=[1−(mean tumor volume of treated)/(mean tumor volume of vehicle)]. […] Tumor regression was defined as a reduction in mean tumor volume after dosing. In cases where tumors regressed, Time To Progression (TTP) indicates the number of days between the first does and the time at which mean tumor volume increased from the previous measurement to a statistically significant degree.

B1: hu24-vc0101: hu24 conjugated through cysteines to vc0101 linker-payload; average DAR approximately 4 (conjugate)
heavy: QVQLVQSGPEVKKPGASVKVSCKASGYTFTDYAVHWVRQAPGKRLEWIGVISTYNDYTYNNQDFKGRVTMTRDTSASTAYMELSRLRSEDTAVYYCARGNSYFYALDYWGQGTSVTVSS[letters of human IgG1 constant region omitted]
light: EIVLTQSPATLSLSPGERATLSCRASESVDSYGKSFMHWYQQKPGQAPRLLIYRASNLESGIPARFSGSGSGTDFTLTISSLEPEDFAVYYCQQSNEDPWTFGGGTKLEIKRTVAAPSVFIFPPSDEQLKSGTASVVCLLNNFYPREAKVQWKVDNALQSGNSQESVTEQDSKDSTYSLSSTLTLSKADYEKHKVYACEVTHQGLSSPVTKSFNRGEC
# Animals with tumors (BR13 TNBC breast tumors; Group B1, 159 cells implanted per animal, 7 animals in group): 3 | # Animals with tumors (BR13 TNBC breast tumors; Group B2, 90 cells implanted per animal, 8 animals in group): 2 | # Animals with tumors (BR13 TNBC breast tumors; Group B3, 40 cells implanted per animal, 10 animals in group): 0 | # Animals with tumors (BR13 TNBC breast tumors; Group B4, 10 cells implanted per animal, 8 animals in group): 0 | Regression (TTP, Days) or % TGI ([1]; 0.3 mg/kg, Q4Dx4 ip): None | tumor volume ± SEM ([1]; 1 mg/kg, Day 0): 172 ± 22 mm^3 | tumor volume ± SEM ([1]; 1 mg/kg, Day 7): 245 ± 28 mm^3 | tumor volume ± SEM ([1]; 1 mg/kg, Day 14): 157 ± 48 mm^3 | tumor volume ± SEM ([1]; 1 mg/kg, Day 21): 213 ± 97 mm^3 | tumor volume ± SEM ([1]; 1 mg/kg, Day 28): 266 ± 114 mm^3 | tumor volume ± SEM ([1]; 1 mg/kg, Day 35): 357 ± 156 mm^3 | tumor volume ± SEM ([1]; 1 mg/kg, Day 42): 758 ± 225 mm^3 | tumor volume ± SEM ([1]; 1 mg/kg, Day 49): 912 ± 203 mm^3 | Regression (TTP, Days) ([1]; 1 mg/kg, Q4Dx4 ip): Regression (21) Days | tumor volume ± SEM ([1]; 3 mg/kg, Day 0): 170 ± 19 mm^3 | tumor volume ± SEM ([1]; 3 mg/kg, Day 7): 89 ± 22 mm^3 | tumor volume ± SEM ([1]; 3 mg/kg, Day 14): 21 ± 5 mm^3 | tumor volume ± SEM ([1]; 3 mg/kg, Day 21): 0 ± 0 mm^3 | tumor volume ± SEM ([1]; 3 mg/kg, Day 28): 0 ± 0 mm^3 | tumor volume ± SEM ([1]; 3 mg/kg, Day 35): 0 ± 0 mm^3 | tumor volume ± SEM ([1]; 3 mg/kg, Day 42): 0 ± 0 mm^3 | tumor volume ± SEM ([1]; 3 mg/kg, Day 49): 0 ± 0 mm^3 | tumor volume ± SEM ([1]; 3 mg/kg, Day 56): 0 ± 0 mm^3 | tumor volume ± SEM ([1]; 3 mg/kg, Day 63): 0 ± 0 mm^3 | tumor volume ± SEM ([1]; 3 mg/kg, Day 70): 0 ± 0 mm^3 | tumor volume ± SEM ([1]; 3 mg/kg, Day 77): 0 ± 0 mm^3 | tumor volume ± SEM ([1]; 3 mg/kg, Day 84): 0 ± 0 mm^3 | tumor volume ± SEM ([1]; 3 mg/kg, Day 91): 0 ± 0 mm^3 | tumor volume ± SEM ([1]; 3 mg/kg, Day 98): 0 ± 0 mm^3 | tumor volume ± SEM ([1]; 3 mg/kg, Day 105): 0 ± 0 mm^3 | tumor volume ± SEM ([1]; 3 mg/kg, Day 112): 0 ± 0 mm^3 | tumor volume ± SEM ([1]; 3 mg/kg, Day 119): 0 ± 0 mm^3 | tumor volume ± SEM ([1]; 3 mg/kg, Day 126): 0 ± 0 mm^3 | tumor volume ± SEM ([1]; 3 mg/kg, Day 133): 0 ± 0 mm^3 | tumor volume ± SEM ([1]; 3 mg/kg, Day 140): 0 ± 0 mm^3 | tumor volume ± SEM ([1]; 3 mg/kg, Day 147): 0 ± 0 mm^3 | tumor volume ± SEM ([1]; 3 mg/kg, Day 154): 0 ± 0 mm^3 | tumor volume ± SEM ([1]; 3 mg/kg, Day 161): 0 ± 0 mm^3 | Regression (TTP, Days) ([1]; 3 mg/kg, Q4Dx4 ip): Regression (205) Days
